The text below walks through data of the supplement of paper PMC11417369.

Some of the results follow.

The test system of the experiment is PF3D7_0420300 AP2 domain 1 (GST-tagged). Put plainly: gcPBM binding intensity (ln(normalized median fluorescence intensity)); higher = stronger DNA binding. Summed up:
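Binding of GST-tagged P. falciparum DNA-binding domains, expressed in E. coli and used at about 25 μg on average, was carried out for 1 h in 1× PBS containing 1% milk, 0.2 mg/ml BSA, 0.5% salmon testes DNA and 0.03% Triton X-100. The target was an Agilent 4 × 180k array of primer-extended double-stranded 36-bp intergenic genomic probes plus negative controls, read with Alexa488 anti-GST antibody at 488 nm. Binding intensity is the highest Masliner-normalised natural-log median intensity across replicate spots of either probe orientation.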
With “ACATAGATCATAGGTTGTACGAAGGTATCCTTTATT [XGTACX_site694]”, the “gcPBM binding intensity (ln)” value worked out at 9.36.
Then “ACTTTTTGAATGTTTGCACACAAATCTCATAATTTT [CACACA_site358]”, with 9.54; and “AAAAGGAGCAAATACAAAAAAATGAACAAAAAAAAA [CACACA_negctrl_site716]”, with 9.48.
“TTTTTCTTTGAATAAATACACACGAGAAATGAAAGT [CACACA_site1688]”: the “gcPBM binding intensity (ln)” value was determined as 9.52.
On to “CATACCTATAGACACACACACACACGCACGCACAAA [CACACA_site6374]”, for which the “gcPBM binding intensity (ln)” value was 10.2.
As for “TTTTGTAATGCTTTTTTTTTTTTTTTTTTTTTTTTT [CACACA_negctrl_site932]”, the “gcPBM binding intensity (ln)” value came to 9.2.
In the case of “TTTTTATTTTTTTATGCATGTGATGAAACGTGCCTA [TGCATGCA_site141]”, the “gcPBM binding intensity (ln)” value was 8.79.
With “TAATAAATCAAATGCACACACACAAAAAAAAAAAAA [CACACA_site161]”, the “gcPBM binding intensity (ln)” value stood at 10.
As for “ATAATTAACAAATACACACACACACCCAGACAAAAA [CACACA_site4445]”, the “gcPBM binding intensity (ln)” value turned out to be 10.2.
Consider “TTAAAAGAAAATAGGTGTACACATAATATATACATA [XGTACX_site7697]”, for which the “gcPBM binding intensity (ln)” value turned out to be 9.39.
Turning to “AAACAAATAAAAATATGTACACATTTTTTCATTATG [XGTACX_site5449]”, the “gcPBM binding intensity (ln)” value came out at 9.23.
Then “AAAATATTAAATATGTGTACATATAATAGTTCAATG [XGTACX_site5957]”, with 9.3; and “TTTTTAATCATAATATGTACATATAAAAATGGTTTG [XGTACX_site3996]”, with 9.06; and “AATATGTCTTAAAAAAGTACATAAATTTTAACTTCA [XGTACX_site6670]”, with 8.84.
Turning to “AACAATTAGAATAACGCATGCATTTATAATATAGAA [TGCATGCA_site595]”, the “gcPBM binding intensity (ln)” value worked out at 9.3.
As to “TGTGTATATATAAATACACACCAAATGTTAATATAT [CACACA_site8501]”, the “gcPBM binding intensity (ln)” value worked out at 9.36.
Then “ATACTGTATAGTCGCACACAAAAATATAAAATATTT [CACACA_site6004]”, with 9.41; and “TTACACAAGGATAAAAACATATGTATGATTATATAT [CACACA_negctrl_site654]”, with 9.38; and “AAAATTTGAAAAAGGGGTACTTAATAAAAGTTTCAT [XGTACX_site932]”, with 9.1.
The value for “AGTATTATTTACTGCGCATGCTATTTATATATATTA [TGCATGCA_site876]” was 9.37.
Then “ACCATATATTAAAAAGTGCATTAAATATATAAATAT [GTGCAC_site9443]”, with 9.08; and “AATAGAAATTATATAAACATAAATGAATAAATAAAT [CACACA_negctrl_site1817]”, with 9.43.
Consider “AATTAAATGGATAAATGTACATATGTGAATATATTT [XGTACX_site84]”, for which the “gcPBM binding intensity (ln)” value is 9.35.
Take “ATTTTATTTAAATACACACACATATATATATTATAT [CACACA_site4607]”: the “gcPBM binding intensity (ln)” value worked out at 9.71.
As to “CACAGACACCCATACACACACATACCCATATATATA [CACACA_site5023]”, the “gcPBM binding intensity (ln)” value is 10.
For the sequence “AATTATCAGGAATGATGTACTGAAATAAAAAAAAAA [XGTACX_site3280]”, the “gcPBM binding intensity (ln)” value turned out to be 9.11.
Consider “CTACATATGTATAATATGCACACGTCATTTTCCCCT [CACACA_site2107]”, for which the “gcPBM binding intensity (ln)” value came to 9.41.
“ACACAAAAATGAAAAATGAAAAGGGTAATATATATA [CACACA_negctrl_site1490]”: the “gcPBM binding intensity (ln)” value came to 9.5.
The value for “AAAAAAAAAAAAAAAGCACACATCATATTTTAATTC [CACACA_site9109]” was 9.35.
As to “ACCCAAGAGAAAAGAGAAAGAAATATGTGTATATTG [GTGCAC_negctrl_site214]”, the “gcPBM binding intensity (ln)” value came out at 9.33.
Then “ATATATATATATATAACATGCAAAGTTCAAAAAAAA [TGCATGCA_site943]”, with 9.37.
Then “TTATAGTAATAATAATGTACATTTATACACATATAT [XGTACX_site1965]”, with 9.28.
In the case of “AAAAAAAACAGACACACACACACATATACATACATA [CACACA_site2665]”, the “gcPBM binding intensity (ln)” value was found to be 10.2.
On to “TTTTTTTTATTATAAATATATATATTATAAAACGAA [XGTACX_negctrl_site189]”, for which the “gcPBM binding intensity (ln)” value was found to be 8.76.
As for “CATTCTACAATAAAAAGTACATATATATATTATATA [XGTACX_site921]”, the “gcPBM binding intensity (ln)” value came out at 9.11.
Turning to TCAAAAAAAATTTTAGTGCATATTTTAGTCAAAACA, the “gcPBM binding intensity (ln)” value was 8.73.
Take “TAATATTTCGTTAAGTTTTAAAGAAAAAAAAAAAAA [CACACA_negctrl_site1253]”: the “gcPBM binding intensity (ln)” value was 8.78.
In the case of “ATTTAAATAATATGTACACACATTTAAAAAGTTATA [CACACA_site7347]”, the “gcPBM binding intensity (ln)” value was 9.29.
As to “ACACATATAATAGTTACATGCAAAAATACTTTTATT [TGCATGCA_site785]”, the “gcPBM binding intensity (ln)” value is 9.52.
Then “TTTTTATAACATAAAAGTACATATTTTTAATTTAAT [XGTACX_site4394]”, with 8.87.
As for “AAATTAAATGATAGAGCATGCGCTAAAAATGAGAAA [TGCATGCA_site937]”, the “gcPBM binding intensity (ln)” value worked out at 9.28.
“AAATTAAAAATAATTACACACATAGAAAAGTTATAT [CACACA_site7137]”: the “gcPBM binding intensity (ln)” value came out at 9.72.
On to “TTTTGCAAATATTACTGTACACAATCTCATATAATT [XGTACX_site2584]”, for which the “gcPBM binding intensity (ln)” value worked out at 9.3.
Then “TTTTCAGAAAGACATGCATACAAAAATAAAAAAGAT [TGCATGCA_site814]”, with 9.39.
